# Some of the results follow.
# B1: Gal 3 (Homo sapiens), P17931 (protein)
# chain: MADNFSLHDALSGSGNPNPQGWPGAWGNQPAGAGGYPGASYPGAYPGQAPPGAYPGQAPPGAYHGAPGAYPGAPAPGVYPGPPSGPGAYPSSGQPSAPGAYPATGPYGAPAGPLIVPYNLPLPGGVVPRMLITILGTVKPNANILDFQRGNDVAFHFNPRFNENNRRVIVCNTKLDNNWAREERQSVFPFESGKPFKIQVLVEPDHFKVAVNDAHLLQYNHRVKKLNEISKLGISGDIDLTSASYTMI
# Experiments:
# Test in all cases: glycan array binding signal (z-score within array); higher = stronger binding
# Settings in all cases: glycan notation: IUPAC condensed, linker removed; mutation: G182A
# [1] = target: Man(a1-2)Man(a1-6)[Man(a1-3)]Man(a1-6)[Man(a1-2)Man(a1-2)Man(a1-3)]Man(b1-4)GlcNAc(b1-4)GlcNAc
# How it was run: (§1)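 The binding signal is a Z-score computed within each array. Data were drawn from 3228 arrays in the Consortium for Functional Glycomics database, restricted to those with a known protein sequence. Scores were averaged over arrays of the same protein sequence at different concentrations or buffers, and over linkers, and negative values can be taken as non-binding.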
# Man(a1-3)[Man(a1-6)]Man = target: Man(a1-3)[Man(a1-6)]Man
# How it was run: as §1
# [2] = target: Man(a1-3)[Man(a1-6)]Man(a1-6)[Man(a1-2)Man(a1-3)]Man(b1-4)GlcNAc(b1-4)GlcNAc
# How it was run: as §1
# [3] = target: Man(a1-3)[Man(a1-6)]Man(a1-6)[Man(a1-3)]Man
# How it was run: as §1
# [4] = target: Man(a1-3)[Man(a1-6)]Man(a1-6)[Man(a1-3)]Man(b1-4)GlcNAc(b1-4)GlcNAc
# How it was run: as §1
# [5] = target: Man(a1-3)[Man(a1-6)]Man(b1-4)GlcNAc(b1-4)GlcNAc
# How it was run: as §1
# Man(a1-6)Man = target: Man(a1-6)Man
# How it was run: as §1
# Man(b1-4)GlcNAc = target: Man(b1-4)GlcNAc
# How it was run: as §1
# Neu5Ac(a2-3)Gal = target: Neu5Ac(a2-3)Gal
# How it was run: as §1
# [6] = target: Neu5Ac(a2-3)Gal(b1-3)GalNAc
# How it was run: as §1
# [7] = target: Neu5Ac(a2-3)Gal(b1-3)GalNAc(b1-3)Gal(a1-4)Gal(b1-4)Glc
# How it was run: as §1
# [8] = target: Neu5Ac(a2-3)Gal(b1-3)GalNAc(b1-4)[Neu5Ac(a2-3)]Gal(b1-4)Glc
# How it was run: as §1
# [9] = target: Neu5Ac(a2-3)Gal(b1-3)GalNAc6S
# How it was run: as §1
# [10] = target: Neu5Ac(a2-3)Gal(b1-3)GlcNAc
# How it was run: as §1
# [11] = target: Neu5Ac(a2-3)Gal(b1-3)GlcNAc(b1-2)Man(a1-3)[Neu5Ac(a2-3)Gal(b1-3)GlcNAc(b1-2)Man(a1-6)]Man(b1-4)GlcNAc(b1-4)GlcNAc
# How it was run: as §1
# [12] = target: Neu5Ac(a2-3)Gal(b1-3)GlcNAc(b1-3)Gal(b1-3)GlcNAc
# How it was run: as §1
# [13] = target: Neu5Ac(a2-3)Gal(b1-3)GlcNAc(b1-3)Gal(b1-4)GlcNAc
# How it was run: as §1
# [14] = target: Neu5Ac(a2-3)Gal(b1-3)GlcNAc(b1-3)GalNAc
# How it was run: as §1
# [15] = target: Neu5Ac(a2-3)Gal(b1-3)GlcNAc6S
# How it was run: as §1
# [16] = target: Neu5Ac(a2-3)Gal(b1-3)[Fuc(a1-4)]GlcNAc
# How it was run: as §1
# [17] = target: Neu5Ac(a2-3)Gal(b1-3)[Fuc(a1-4)]GlcNAc(b1-3)Gal(b1-3)[Fuc(a1-4)]GlcNAc
# How it was run: as §1
# [18] = target: Neu5Ac(a2-3)Gal(b1-3)[Fuc(a1-4)]GlcNAc(b1-3)Gal(b1-4)[Fuc(a1-3)]GlcNAc
# How it was run: as §1
# [19] = target: Neu5Ac(a2-3)Gal(b1-3)[Neu5Ac(a2-3)Gal(b1-4)]GlcNAc
# How it was run: as §1
# [20] = target: Neu5Ac(a2-3)Gal(b1-3)[Neu5Ac(a2-6)]GalNAc
# How it was run: as §1
# Neu5Ac(a2-3)Gal(b1-4)Glc = target: Neu5Ac(a2-3)Gal(b1-4)Glc
# How it was run: as §1
# [21] = target: Neu5Ac(a2-3)Gal(b1-4)GlcNAc
# How it was run: as §1
# [22] = target: Neu5Ac(a2-3)Gal(b1-4)GlcNAc(b1-2)Man(a1-3)[GlcNAc(b1-2)Man(b1-4)GlcNAc(b1-2)Man(a1-6)]Man(b1-4)GlcNAc(b1-4)GlcNAc
# How it was run: as §1
# [23] = target: Neu5Ac(a2-3)Gal(b1-4)GlcNAc(b1-2)Man(a1-3)[Neu5Ac(a2-6)Gal(b1-4)GlcNAc(b1-2)Man(a1-6)]Man(b1-4)GlcNAc(b1-4)GlcNAc
# How it was run: as §1
# [24] = target: Neu5Ac(a2-3)Gal(b1-4)GlcNAc(b1-3)Gal(b1-3)GlcNAc
# How it was run: as §1
# [25] = target: Neu5Ac(a2-3)Gal(b1-4)GlcNAc(b1-3)Gal(b1-4)GlcNAc
# How it was run: as §1
# [26] = target: Neu5Ac(a2-3)Gal(b1-4)GlcNAc(b1-3)Gal(b1-4)GlcNAc(b1-3)Gal(b1-4)GlcNAc
# How it was run: as §1
# [27] = target: Neu5Ac(a2-3)Gal(b1-4)GlcNAc(b1-3)Gal(b1-4)[Fuc(a1-3)]GlcNAc
# How it was run: as §1
# [28] = target: Neu5Ac(a2-3)Gal(b1-4)GlcNAc(b1-3)GalNAc
# How it was run: as §1
# [29] = target: Neu5Ac(a2-3)Gal(b1-4)GlcNAc(b1-6)[Gal(b1-3)]GalNAc
# How it was run: as §1
# [30] = target: Neu5Ac(a2-3)Gal(b1-4)GlcNAc(b1-6)[Neu5Ac(a2-3)Gal(b1-3)]GalNAc
# How it was run: as §1
# [31] = target: Neu5Ac(a2-3)Gal(b1-4)GlcNAc6S
# How it was run: as §1
# [32] = target: Neu5Ac(a2-3)Gal(b1-4)[Fuc(a1-3)]GlcNAc
# How it was run: as §1
# [33] = target: Neu5Ac(a2-3)Gal(b1-4)[Fuc(a1-3)]GlcNAc(b1-3)Gal
# How it was run: as §1
# [34] = target: Neu5Ac(a2-3)Gal(b1-4)[Fuc(a1-3)]GlcNAc(b1-3)Gal(b1-4)GlcNAc
# How it was run: as §1
# [35] = target: Neu5Ac(a2-3)Gal(b1-4)[Fuc(a1-3)]GlcNAc(b1-3)Gal(b1-4)[Fuc(a1-3)]GlcNAc(b1-3)Gal(b1-4)[Fuc(a1-3)]GlcNAc
# How it was run: as §1
# [36] = target: Neu5Ac(a2-3)Gal(b1-4)[Fuc(a1-3)]GlcNAc(b1-3)GalNAc
# How it was run: as §1
# [37] = target: Neu5Ac(a2-3)Gal(b1-4)[Fuc(a1-3)]GlcNAc(b1-6)[Gal(b1-3)]GalNAc
# How it was run: as §1
# [38] = target: Neu5Ac(a2-3)Gal(b1-4)[Fuc(a1-3)]GlcNAc(b1-6)[Neu5Ac(a2-3)Gal(b1-3)]GalNAc
# How it was run: as §1
# [39] = target: Neu5Ac(a2-3)Gal(b1-4)[Fuc(a1-3)]GlcNAc6S
# How it was run: as §1
# [40] = target: Neu5Ac(a2-3)Gal6S(b1-4)GlcNAc
# How it was run: as §1
binder,measurement,setting,value
B1,glycan array binding signal (z-score),[1],-0.184
same,glycan array binding signal (z-score),Man(a1-3)[Man(a1-6)]Man,-0.151
same,glycan array binding signal (z-score),[2],-0.151
same,glycan array binding signal (z-score),[3],-0.157
same,glycan array binding signal (z-score),[4],-0.191
same,glycan array binding signal (z-score),[5],-0.191
same,glycan array binding signal (z-score),Man(a1-6)Man,-0.19
same,glycan array binding signal (z-score),Man(b1-4)GlcNAc,-0.165
same,glycan array binding signal (z-score),Neu5Ac(a2-3)Gal,-0.155
same,glycan array binding signal (z-score),[6],-0.183
same,glycan array binding signal (z-score),[7],-0.191
same,glycan array binding signal (z-score),[8],-0.187
same,glycan array binding signal (z-score),[9],-0.18
same,glycan array binding signal (z-score),[10],-0.159
same,glycan array binding signal (z-score),[11],-0.194
same,glycan array binding signal (z-score),[12],-0.067
same,glycan array binding signal (z-score),[13],-0.013
same,glycan array binding signal (z-score),[14],-0.164
same,glycan array binding signal (z-score),[15],-0.193
same,glycan array binding signal (z-score),[16],-0.194
same,glycan array binding signal (z-score),[17],-0.187
same,glycan array binding signal (z-score),[18],-0.176
same,glycan array binding signal (z-score),[19],-0.194
same,glycan array binding signal (z-score),[20],-0.189
same,glycan array binding signal (z-score),Neu5Ac(a2-3)Gal(b1-4)Glc,-0.187
same,glycan array binding signal (z-score),[21],-0.165
same,glycan array binding signal (z-score),[22],-0.168
same,glycan array binding signal (z-score),[23],-0.168
same,glycan array binding signal (z-score),[24],-0.194
same,glycan array binding signal (z-score),[25],-0.15
same,glycan array binding signal (z-score),[26],3.32
same,glycan array binding signal (z-score),[27],-0.196
same,glycan array binding signal (z-score),[28],-0.187
same,glycan array binding signal (z-score),[29],-0.173
same,glycan array binding signal (z-score),[30],-0.181
same,glycan array binding signal (z-score),[31],-0.107
same,glycan array binding signal (z-score),[32],-0.155
same,glycan array binding signal (z-score),[33],-0.192
same,glycan array binding signal (z-score),[34],-0.15
same,glycan array binding signal (z-score),[35],-0.194
same,glycan array binding signal (z-score),[36],-0.162
same,glycan array binding signal (z-score),[37],-0.188
same,glycan array binding signal (z-score),[38],-0.188
same,glycan array binding signal (z-score),[39],-0.196
same,glycan array binding signal (z-score),[40],-0.189

# — the supplement of paper PMC8728848
